Screen size: about 310,000 compounds; about 2,200 (0.71%) showed an effect of 50% or more. The effect is printed as a negative number. This is one part of the list.
Biological target: human ether-à-go-go-related gene (hERG) potassium channel (human, UniProt Q12809)
Assay: primary screen, population patch clamp on CHO cells stably expressing hERG

Chain of human ether-à-go-go-related gene (hERG) potassium channel (Q12809 whole entry, looked up): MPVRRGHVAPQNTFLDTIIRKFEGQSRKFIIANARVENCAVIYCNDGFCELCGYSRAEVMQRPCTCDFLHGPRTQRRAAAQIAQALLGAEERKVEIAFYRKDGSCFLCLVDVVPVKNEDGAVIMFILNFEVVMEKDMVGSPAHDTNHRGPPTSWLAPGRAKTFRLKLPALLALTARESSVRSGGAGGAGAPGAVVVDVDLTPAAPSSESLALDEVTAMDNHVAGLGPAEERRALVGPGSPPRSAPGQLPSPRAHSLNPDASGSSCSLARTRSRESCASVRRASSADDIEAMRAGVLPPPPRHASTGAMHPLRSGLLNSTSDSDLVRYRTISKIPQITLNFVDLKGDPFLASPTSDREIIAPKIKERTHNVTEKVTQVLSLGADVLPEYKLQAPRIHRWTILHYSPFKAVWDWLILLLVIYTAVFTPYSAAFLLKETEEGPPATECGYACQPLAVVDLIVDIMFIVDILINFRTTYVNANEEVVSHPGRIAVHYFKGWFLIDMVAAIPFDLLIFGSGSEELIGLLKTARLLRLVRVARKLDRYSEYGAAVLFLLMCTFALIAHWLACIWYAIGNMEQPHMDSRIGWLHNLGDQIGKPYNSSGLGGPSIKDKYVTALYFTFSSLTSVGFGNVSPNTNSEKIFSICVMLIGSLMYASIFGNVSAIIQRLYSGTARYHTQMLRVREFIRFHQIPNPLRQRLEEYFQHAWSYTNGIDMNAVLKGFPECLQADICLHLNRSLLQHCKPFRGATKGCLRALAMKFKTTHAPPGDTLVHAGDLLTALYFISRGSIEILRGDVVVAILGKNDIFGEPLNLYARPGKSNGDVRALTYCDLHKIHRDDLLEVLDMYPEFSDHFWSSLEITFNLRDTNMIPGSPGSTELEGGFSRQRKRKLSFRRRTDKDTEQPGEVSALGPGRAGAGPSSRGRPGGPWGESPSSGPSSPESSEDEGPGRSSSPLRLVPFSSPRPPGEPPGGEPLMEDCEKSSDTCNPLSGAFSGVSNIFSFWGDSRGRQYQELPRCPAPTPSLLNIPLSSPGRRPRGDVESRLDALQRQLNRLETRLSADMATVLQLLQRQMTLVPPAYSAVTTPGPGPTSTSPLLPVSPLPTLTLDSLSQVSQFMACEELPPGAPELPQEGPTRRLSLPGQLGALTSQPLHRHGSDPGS

Compound	hERG current change (%, negative = inhibition) at 1uM [%]
Cc1ccc2c(Cl)c(C(=O)Nc3nn[nH]n3)sc2c1	7.49
Cc1ccc(Cn2c(SCC(=O)NCC3CCCO3)nc3c2c(=O)n(C)c(=O)n3C)cc1 (stereo not drawn)	2.65
CN(NC(=O)c1ccco1)c1nc2ccccc2nc1C(F)(F)F	12.8
O=C(Nc1ccccc1)N1CCN(S(=O)(=O)c2ccccc2)CC1	10.1
CCOC(=O)C1(Cc2cccc(OC)c2)CCN(Cc2cccc(OCC)c2O)CC1	-33.4
CCN(C(=O)c1cccc(NC(=O)c2ccccc2)c1)C1CCCCC1	7.25
CCOCCn1ccc2c(OCC(=O)Nc3ccc(OC)c(OC)c3)cccc2c1=O	9.94
COc1ccc(-c2nc3nc(N)nn3cc2C)cc1F	16
N#Cc1ccc(C(=O)Nc2ccc3ccccc3c2)cc1	19.4
CCn1cc(/C=N\NC(=O)c2ccc3c(c2)c(C)c(C)n3Cc2ccccc2)c(C)n1	-0.688
Cn1c(/C(C#N)=C/C2CC=CCC2)nc2ccccc21 (stereo not drawn)	-6.71
C/C(N)=C(/C#N)C(=O)COC(=O)c1ccc(O)cc1	9.13
CCOC(=O)c1c(CSc2ccc(C)cc2)n(C)c2cc(Br)c(O)c(CN(C)C)c12.Cl.O	18
OCCC#Cc1ccc(CN2CCN(Cc3ccccc3)C(CCO)C2)cc1 (stereo not drawn)	-0.519
Cc1ccc(N(CC(=O)N2CCc3ccccc32)S(=O)(=O)c2cccs2)cc1	8.95
C[C@@H]1O[C@@H](O[C@H]2[C@H](Oc3cc(O)c4c(c3)OC(c3ccc(O)cc3)CC4=O)O[C@H](CO)[C@@H](O)[C@@H]2O)[C@H](O)[C@H](O)[C@H]1O (stereo partly drawn)	11.9
O=C(C1=C[C@H](c2coc3ccccc3c2=O)C[C@H](OCc2ccc(CO)cc2)O1)N1CCOCC1	-8.3
CC(=O)c1ccc(OCCOc2ccc(C#N)cc2)cc1	-5.61
CCOC(=O)CNc1ncc([N+](=O)[O-])cc1C#N	6.86
Cn1nc(-c2ccccc2)c2nc3ccccc3nc21	2.37
Cc1nc(NCCCn2ccnc2)c2ccccc2n1.Cl	11.3
COc1cccc(C(=O)Nc2c(F)cccc2F)c1	14.3
Cc1c(C(=O)N/N=C/c2ccc(N3CCOCC3)cc2)nc2ccccn12	10.5
COC(=O)c1ccc(CN(c2ccc(OC)cc2)S(=O)(=O)c2ccccc2)cc1	12.4
